The other results are listed elsewhere or left out.

Drawing on the antibiotic and cytotoxicity screens of Wong et al. (2023), this text covers cytotoxicity call for 40 compounds.

In the experiment the test system is HSkMC (human skeletal muscle cells). The experiment in a line: cytotoxicity call (relative viability < 0.9). Particulars: 10 µM.
On to `COc1ccc(S(=O)(=O)Nc2ccc3c(c2)C(=O)N([C@@H](C)CO)C[C@H](C)[C@@H](CN(C)Cc2ccc4c(c2)OCO4)OCCCC[C@@H](C)O3)cc1`, for which the cytotoxicity call was “inactive”.

Consider `C[C@@H]1CCCCO[C@H](CN(C)C(=O)Nc2cccc3ccccc23)[C@H](C)CN([C@H](C)CO)C(=O)c2cc(NC(=O)Cc3ccccc3)ccc2O1`, for which the cytotoxicity call was “inactive”.

In the case of `Cc1ccc(C(=O)O)c(=O)[nH]1`, the cytotoxicity call is “inactive”.

As to `O=C(C[C@H]1C[C@@H]2c3cc(NC(=O)NC4CCCC4)ccc3O[C@@H]2[C@@H](CO)O1)NCc1ccc2c(c1)OCO2`, the cytotoxicity call was “inactive”.

As for `COc1ccc(NC(=O)N(C)C[C@@H]2OCCCC[C@H](C)Oc3ccc(NS(=O)(=O)c4ccc(C)cc4)cc3C(=O)N([C@H](C)CO)C[C@H]2C)cc1`, the cytotoxicity call is “inactive”.

On to `COc1ccc2c3c([nH]c2c1)[C@H](CO)N(C[C@]13CCN(CC1)Cc1ccccc1)S(=O)(=O)c1cn(cn1)C`, for which the cytotoxicity call is “inactive”.

For the compound `C[C@H]1CN([C@@H](C)CO)S(=O)(=O)c2ccc(C#Cc3ccccc3F)cc2O[C@@H]1CN(C)CC1CCOCC1`, the cytotoxicity call is “inactive”.

`Cc1noc(C)c1NC(=O)Nc1ccc2c(c1)C(=O)N([C@@H](C)CO)C[C@@H](C)[C@@H](CN(C)Cc1ccc(C(F)(F)F)cc1)OCCCC[C@H](C)O2`: the cytotoxicity call is “inactive”.

As to `Cc1cnc(N2C[C@H]3OCCN(S(=O)(=O)N(C)C)[C@H]3C2)nc1`, the cytotoxicity call was “inactive”.

`FC(F)(F)c1nnc2n1CCNC2`: the cytotoxicity call is “inactive”.

Take `C[C@@H]1CN([C@@H](C)CO)S(=O)(=O)c2ccc(-c3cncnc3)cc2O[C@H]1CN(C)C(=O)CN(C)C`: the cytotoxicity call was “inactive”.

`O=C(C[C@H]1CC[C@@H](NC(=O)Nc2ccc3c(c2)OCO3)[C@H](CO)O1)NCCCN1CCOCC1`: the cytotoxicity call is “inactive”.

For `C[C@H](CO)N1C[C@H](C)[C@@H](CN(C)S(=O)(=O)c2cn(C)cn2)Oc2ccc(NC(=O)CCC(F)(F)F)cc2CC1=O`, the cytotoxicity call was “inactive”.

As for `O=C(Cn1cnnn1)NS(=O)(=O)c1ccccc1`, the cytotoxicity call is “inactive”.

For the compound `CC(C)NC(=O)Nc1ccc2c(c1)C(=O)N([C@H](C)CO)C[C@H](C)[C@H](CN(C)C(=O)NC1CCCCC1)O2`, the cytotoxicity call is “inactive”.

With `COc1ccc(NC(=O)N(C)C[C@H]2OCCCC[C@@H](C)Oc3ccc(NS(=O)(=O)c4cccs4)cc3C(=O)N([C@@H](C)CO)C[C@H]2C)cc1`, the cytotoxicity call is “inactive”.

Consider `CO[C@@]12[C@@H]3N[C@@H]3CN1C1=C(C(=O)C(N)=C(C)C1=O)[C@@H]2COC(N)=O`, for which the cytotoxicity call is “active”.

As to `O=C(CCCCCNC(=O)OCc1ccc(CO[C@H]2C[C@@H](c3ccc(C(F)(F)F)cc3)C=C(C(=O)N3CCN(Cc4ccccc4)CC3)O2)cc1)NO`, the cytotoxicity call is “inactive”.

For `CCCN(C)C[C@H]1OCCCC[C@H](C)Oc2ccc(NC(=O)C3CCCCC3)cc2C(=O)N([C@@H](C)CO)C[C@H]1C`, the cytotoxicity call is “inactive”.

Regarding `COc1ccc(S(=O)(=O)Nc2ccc3c(c2)CC(=O)N([C@H](C)CO)C[C@@H](C)[C@H](CN(C)S(=O)(=O)c2ccc(C)cc2)O3)cc1`, the cytotoxicity call was “inactive”.

On to `C[C@@H]1CN([C@@H](C)CO)C(=O)c2cc(NC(=O)Cc3ccccc3)ccc2O[C@@H](C)CCCCO[C@H]1CN(C)C(=O)c1ccccc1`, for which the cytotoxicity call is “inactive”.

For the compound `C[C@@H]1CCCCO[C@H](CN(C)Cc2ccccc2)[C@@H](C)CN([C@@H](C)CO)C(=O)c2cc(NC(=O)NC3CCCCC3)ccc2O1`, the cytotoxicity call is “inactive”.

For the compound `Cc1noc(C)c1S(=O)(=O)N(C)C[C@H]1Oc2ccc(NC(=O)Cc3ccccc3)cc2CC(=O)N([C@H](C)CO)C[C@@H]1C`, the cytotoxicity call is “inactive”.

For the compound `NCCCCCNC(=O)[C@@H]1C[C@@H]2C(=O)NCC(=O)N2[C@@H]1c1cccc(OCCO)c1`, the cytotoxicity call was “inactive”.

As for `CCOC(=O)N1CCN([C@H](c2ccc(OC)cc2)c2cc(CC)sc2NC(=O)c2ccccc2)CC1`, the cytotoxicity call was “inactive”.

As for `CC(C)N1C[C@H](CNCc2ccc(Oc3ccccc3)cc2)Oc2c(NC(=O)c3ccncc3)cccc2C1=O`, the cytotoxicity call is “inactive”.

In the case of `CC(=O)O[C@@H]1C[C@H]2[C@@]3(C)CC[C@@H](OC(=O)CC(=O)O)C(C)(C)[C@@H]3CC[C@@]2(C)[C@]2(C)CC[C@](O)([C@]3(C)CC[C@H](C(C)(C)O)O3)[C@@H]12`, the cytotoxicity call is “inactive”.

As for `COc1ccc(cc1)CN1CC[C@]2(CC1)CN([C@H](CO)c1[nH]c3cc(ccc3c12)OC)C(=O)CN(C)C`, the cytotoxicity call was “inactive”.

Turning to `CC1(C)C(=O)C=CC2(C)C1C=CC1(C)C2CCC2(C)C(c3ccoc3)OC(=O)C3OC312` (stereo not given), the cytotoxicity call is “active”.

`COc1ccc(S(=O)(=O)N(C)C[C@H]2Oc3c(NS(=O)(=O)c4cccs4)cccc3C(=O)N([C@@H](C)CO)C[C@H]2C)cc1`: the cytotoxicity call was “inactive”.

For the compound `COc1ccc(NC(=O)N[C@@H]2CC[C@H](CCNC(=O)CN3CCOCC3)O[C@H]2CO)cc1`, the cytotoxicity call is “inactive”.

`CNC[C@@H]1OCCCC[C@H](C)Oc2ccc(NC(=O)c3ccncc3)cc2C(=O)N([C@H](C)CO)C[C@H]1C`: the cytotoxicity call was “inactive”.

Take `C[C@H](CO)N1C[C@H](C)[C@H](CN(C)Cc2ccccc2)Oc2cc(C#CC(C)(C)O)ccc2S1(=O)=O`: the cytotoxicity call was “inactive”.

On to `C[C@@H]1CN([C@@H](C)CO)C(=O)Cc2cc(NC(=O)Cn3cnnn3)ccc2O[C@@H]1CN(C)C(=O)Nc1ccc(F)cc1`, for which the cytotoxicity call was “inactive”.

As for `C[C@@H]1CN([C@@H](C)CO)C(=O)c2cc(NS(=O)(=O)c3cn(C)cn3)ccc2O[C@@H](C)CCCCO[C@H]1CN(C)C(=O)c1ccncc1`, the cytotoxicity call is “inactive”.

As to `C[C@@H]1CN([C@H](C)CO)C(=O)c2cccc(NC(=O)C3CCOCC3)c2O[C@H]1CN(C)C(=O)Nc1ccccc1`, the cytotoxicity call was “inactive”.

On to `CC1COc2c(N3CCN(C)CC3)c(F)cc3c(=O)c(C(=O)O)cn1c23` (stereo not given), for which the cytotoxicity call is “inactive”.

On to `CCCC(=O)Nc1ccc2c(c1)OC[C@@H](C)N(S(=O)(=O)c1cn(C)cn1)C[C@H](C)[C@@H](OC)CN(C)C2=O`, for which the cytotoxicity call is “inactive”.

Turning to `Cc1ccc(S(=O)(=O)Nc2ccc3c(c2)CC(=O)N([C@@H](C)CO)C[C@@H](C)[C@@H](CN(C)S(=O)(=O)c2c(C)noc2C)O3)cc1`, the cytotoxicity call is “inactive”.

With `CC(C)(C)[S@@](=O)N1Cc2cc(C(=O)NCCc3ccncc3)nc(-c3cccc(-c4ccccc4)c3)c2[C@H]1CCO`, the cytotoxicity call was “active”.
